Out of some 310,000 compounds screened, about 14,000 (4.5%) showed an effect of 50% or more. Effects have a minus sign here. This is one part of the list.
These compounds were tested against human ether-à-go-go-related gene (hERG) potassium channel (human, UniProt Q12809) (assay: primary screen, population patch clamp on CHO cells stably expressing hERG).
Chain of human ether-à-go-go-related gene (hERG) potassium channel (Q12809 whole entry, looked up): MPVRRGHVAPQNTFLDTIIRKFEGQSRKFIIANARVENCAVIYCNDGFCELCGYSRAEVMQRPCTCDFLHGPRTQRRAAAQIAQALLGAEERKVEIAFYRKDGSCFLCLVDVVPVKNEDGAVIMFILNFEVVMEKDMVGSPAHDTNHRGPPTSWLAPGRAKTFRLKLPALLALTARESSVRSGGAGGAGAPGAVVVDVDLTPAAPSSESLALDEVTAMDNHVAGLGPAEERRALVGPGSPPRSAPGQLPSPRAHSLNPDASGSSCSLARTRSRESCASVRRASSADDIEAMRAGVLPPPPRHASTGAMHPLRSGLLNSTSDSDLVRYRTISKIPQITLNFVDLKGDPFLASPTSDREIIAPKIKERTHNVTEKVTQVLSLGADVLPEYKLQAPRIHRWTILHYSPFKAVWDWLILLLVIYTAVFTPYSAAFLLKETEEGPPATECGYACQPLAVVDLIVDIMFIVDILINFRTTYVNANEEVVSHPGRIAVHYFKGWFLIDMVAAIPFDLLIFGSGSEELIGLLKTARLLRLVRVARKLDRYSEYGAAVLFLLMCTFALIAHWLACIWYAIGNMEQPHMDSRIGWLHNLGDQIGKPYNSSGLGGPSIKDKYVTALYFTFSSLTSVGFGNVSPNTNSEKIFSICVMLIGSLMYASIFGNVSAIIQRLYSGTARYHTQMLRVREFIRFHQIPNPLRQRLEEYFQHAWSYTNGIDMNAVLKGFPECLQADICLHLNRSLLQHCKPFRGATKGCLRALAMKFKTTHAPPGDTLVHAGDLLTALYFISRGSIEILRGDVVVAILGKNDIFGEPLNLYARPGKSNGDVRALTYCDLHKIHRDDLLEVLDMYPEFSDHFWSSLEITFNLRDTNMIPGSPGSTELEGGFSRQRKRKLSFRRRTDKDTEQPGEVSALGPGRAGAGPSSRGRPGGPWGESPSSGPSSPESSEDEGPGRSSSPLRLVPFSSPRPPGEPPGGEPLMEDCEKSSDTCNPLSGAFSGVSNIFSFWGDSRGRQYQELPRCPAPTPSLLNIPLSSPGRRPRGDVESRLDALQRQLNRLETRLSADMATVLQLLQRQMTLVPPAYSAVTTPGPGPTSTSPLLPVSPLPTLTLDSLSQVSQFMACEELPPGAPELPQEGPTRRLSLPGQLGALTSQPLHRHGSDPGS
In the case of `Cc1cc(C=C(C#N)C#N)ccc1N1CCCC1`, the “hERG current change (%, negative = inhibition) at 10uM” value is reported as -65%.
In the case of `COC(=O)c1cc(N2C(=O)C3C(C2=O)C2(C)C=CC3(C)O2)ccc1Cl` (centres unmarked), the “hERG current change (%, negative = inhibition) at 10uM” value is reported as -14.8%.
With `COc1cccc(CC(=O)NNC(=O)c2c(-c3ccccc3)noc2C)c1` the “hERG current change (%, negative = inhibition) at 10uM” value was -43.7%.
With `COc1ccc(CCNC(=S)Nc2cc(C)ccc2C)cc1` the “hERG current change (%, negative = inhibition) at 10uM” value was -15.9%.
In the case of `C/C(=C/Cc1c(O)cc2oc(C)cc(=O)c2c1O)COC1OC(CO)C(O)C(O)C1O` (centres unmarked), the “hERG current change (%, negative = inhibition) at 10uM” value is reported as 2.15%.
With `O=C(Nc1cccc(-c2cccc(F)c2)c1)C1CCN(Cc2ccc(CO)o2)CC1` the “hERG current change (%, negative = inhibition) at 10uM” value was -70.3%.
With `CCC(=O)Nc1cc(C)c(OC)c(C)c1` the “hERG current change (%, negative = inhibition) at 10uM” value was 21%.
In the case of `COc1ccc(NC(C)c2cc(Cl)ccc2O)cc1` (centres unmarked), the “hERG current change (%, negative = inhibition) at 10uM” value is reported as 1.76%.
With `CCOC(=O)C1C2C=CC(CC2)N1c1ccccc1` (centres unmarked) the “hERG current change (%, negative = inhibition) at 10uM” value was -18.6%.
With `Cc1[nH][nH]c(=O)c1C(c1c(C)[nH][nH]c1=O)c1cn(Cc2ccc(Cl)c(Cl)c2)c2ccccc12` the “hERG current change (%, negative = inhibition) at 10uM” value was 3.86%.
In the case of `Cc1ccsc1/C=C1/SC(N2CC(C)OC(C)C2)=NC1=O` (centres unmarked), the “hERG current change (%, negative = inhibition) at 10uM” value is reported as 2.64%.
With `O=S(=O)(c1ccc(OCC(O)CN2CCN(c3ccccc3O)CC2)cc1)N1CCOCC1` (centres unmarked) the “hERG current change (%, negative = inhibition) at 10uM” value was -6.91%.
For `O=C(/C=C/c1ccccc1)N1CCC(c2ccccc2)C1` (centres unmarked), the “hERG current change (%, negative = inhibition) at 10uM” value was -57.6%.
In the case of `COC(=O)c1cc(OC)cc(O)c1C(=O)c1c(O)cc(C)cc1O`, the “hERG current change (%, negative = inhibition) at 10uM” value is reported as 9.23%.
For `O=C(CNC(=O)N1CC(=O)Nc2ccccc21)Nc1ccccc1F`, the “hERG current change (%, negative = inhibition) at 10uM” value was 18.5%.
`O=C(CN1C(=O)CSc2ncccc21)Nc1cccc(Cl)c1` was tested, and the “hERG current change (%, negative = inhibition) at 10uM” value was -25.4%.
In the case of `CCc1cccc(CC)c1NC(=O)c1ccc(-n2cncn2)nc1`, the “hERG current change (%, negative = inhibition) at 10uM” value is reported as -3.1%.
`CCOc1cc2[nH]c(=O)n(Cc3ccccc3)c(=O)c2cc1OCC` was tested, and the “hERG current change (%, negative = inhibition) at 10uM” value was -2.18%.
`COc1ccc(OCc2nnc(SCC(=O)NC3CC4CCC3C4)o2)cc1` (centres unmarked) was tested, and the “hERG current change (%, negative = inhibition) at 10uM” value was 9.36%.
In the case of `O=C(O)COc1ccc(/C=N/n2cnc3scc(-c4cccs4)c3c2=O)cc1`, the “hERG current change (%, negative = inhibition) at 10uM” value is reported as 13.2%.
For `CC(=O)c1ccc(OCc2cc([N+](=O)[O-])cc3c2OCOC3)cc1`, the “hERG current change (%, negative = inhibition) at 10uM” value was 4.27%.
`O=S(=O)(NCc1ccccc1)c1ccc(S(=O)(=O)N(Cc2ccccn2)C2CCCC2)cc1` was tested, and the “hERG current change (%, negative = inhibition) at 10uM” value was -7.51%.
In the case of `CC1CC(C)CN(CCCNC(=O)C2CCN(S(=O)(=O)N3CCCCC3)CC2)C1` (centres unmarked), the “hERG current change (%, negative = inhibition) at 10uM” value is reported as -18.3%.
With `CCCCN(C(=O)CCNC(=O)NC12CC3CC(CC(C3)C1)C2)c1c(N)n(CCCC)c(=O)[nH]c1=O` the “hERG current change (%, negative = inhibition) at 10uM” value was 13.4%.
`Cc1ccc(S(=O)(=O)Nc2c(O)c3ccccc3oc2=O)cc1` was tested, and the “hERG current change (%, negative = inhibition) at 10uM” value was 12.6%.
With `CCOC(=O)N1CCN(S(=O)(=O)c2ccc(OC)c3ccccc23)CC1` the “hERG current change (%, negative = inhibition) at 10uM” value was -31.9%.
In the case of `COc1ccc(N2CCN(C(CNC(=O)CC(C)(C)C)c3ccc4c(c3)OCO4)CC2)cc1` (centres unmarked), the “hERG current change (%, negative = inhibition) at 10uM” value is reported as -21.3%.
`Cc1nc(NS(=O)(=O)c2ccccc2C)c2c3c(sc2n1)CCC3` was tested, and the “hERG current change (%, negative = inhibition) at 10uM” value was -12.5%.
With `O=C(Nc1cccc(C(F)(F)F)c1)c1n[nH]c(Cn2cncn2)n1` the “hERG current change (%, negative = inhibition) at 10uM” value was -1.92%.
With `O=C(O)c1ccc(Nc2nc(-c3ccccc3)c3ccccc3n2)cc1` the “hERG current change (%, negative = inhibition) at 10uM” value was 0.75%.
For `CCN(C(=O)COC(=O)/C=C/c1cccc([N+](=O)[O-])c1)c1c(N)n(Cc2ccccc2)c(=O)[nH]c1=O`, the “hERG current change (%, negative = inhibition) at 10uM” value was 14.1%.
In the case of `Cc1ccc(CNC(=O)C2CCC(CNc3nc(=S)[nH]c4ccccc34)CC2)cc1` (centres unmarked), the “hERG current change (%, negative = inhibition) at 10uM” value is reported as 14.2%.
`COC(=O)CCN(C1CCCCC1)S(=O)(=O)c1ccc(S(=O)(=O)NC2CCCCC2)cc1` was tested, and the “hERG current change (%, negative = inhibition) at 10uM” value was 2.73%.
For `O=Cc1cc(N=Nc2cccc(C(=O)O)c2)ccc1O`, the “hERG current change (%, negative = inhibition) at 10uM” value was 15.1%.
`N#Cc1c(C(F)(F)F)cc(-c2ccccc2)nc1SCCN1CCOCC1` was tested, and the “hERG current change (%, negative = inhibition) at 10uM” value was -3.77%.
For `Cc1cccc(OCCCC(=O)Nc2ccc(N3CCCCC3)cc2)c1`, the “hERG current change (%, negative = inhibition) at 10uM” value was 5.49%.
For `Cc1nn(-c2ccccc2)c(N)c1Sc1cccc([N+](=O)[O-])c1.Cl`, the “hERG current change (%, negative = inhibition) at 10uM” value was -65.9%.
With `O=C(O)c1ccc(COc2ccc3ccccc3c2/C=C2/NC(=O)N(c3ccccc3)C2=O)cc1` the “hERG current change (%, negative = inhibition) at 10uM” value was -8.37%.
With `COCCCNC(=S)N(CCN(C)C)Cc1cc2cc3c(cc2[nH]c1=O)OCCO3` the “hERG current change (%, negative = inhibition) at 10uM” value was 25.5%.
With `Cc1ccc(S(=O)(=O)N/N=C/c2cccc([N+](=O)[O-])c2)cc1` the “hERG current change (%, negative = inhibition) at 10uM” value was 7.95%.
In the case of `Cc1cccc(NC(=O)CCS(=O)(=O)c2cccc3nonc23)c1C`, the “hERG current change (%, negative = inhibition) at 10uM” value is reported as 7.7%.
With `COC(=O)CSc1nnc(CNc2nc(-c3ccccc3)cs2)n1C` the “hERG current change (%, negative = inhibition) at 10uM” value was -2.27%.
`CC(=O)N(C)c1ccc(NC(=O)C(F)(F)F)cc1` was tested, and the “hERG current change (%, negative = inhibition) at 10uM” value was 0.386%.
In the case of `O=C1N=C(N2CCOCC2)S/C1=C1\C(=O)N(Cc2ccccc2)c2ccccc21`, the “hERG current change (%, negative = inhibition) at 10uM” value is reported as 6.48%.

From PMC4336329 (PLoS ONE, 2015)
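Also: peak tail current of the secondary pulse compared with the same well before compound.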
